From publication PMC10668032
This is one part of the list. At the low end of the ranking the order means little.

Target: SIX1-Q177R homeodomain (UniProt Q15475)
Assay: universal protein binding microarray
Conditions: Universal all-10-mer PBM (8x60K, AMADID 030236), 300 nM GST-tagged protein, Alexa Fluor 488 anti-GST; buffer, salt, pH and temperature not stated; high values mean tight binding; most listed sequences are background and not binding sites; double strand, one strand shown

Sequence	binding signal [E-score]
ATCCTGGC	-0.0482
CATGACCC	0.218
ACGGGTCA	0.113
TAGTTTCA	-0.112
ACTCTGGA	0.0683
AATTGGTG	0.221
CGCGCTGC	-0.0738
CATCAGCA	-0.229
CATTGAAA	-0.103
AAATAAAT	-0.197
AACGAATA	-0.284
CCCCAACA	0.278
TCCCTTAA	0.0808
ACACGGCG	0.359
CACTACAA	0.236
TACCGGTA	0.137
CGGACAAC	-0.0272
GAGGTTGA	-0.0492
AGCCACTG	-0.15
CCGATAGC	-0.00916
CGTCTACC	-0.109
CACTCGAA	0.127
ATCGAGTA	-0.0453
CACCGGAC	0.315
AAAAGGGG	0.0371

Sequence	binding signal [E-score]
ACCCAGGA	0.0898
ATAGTCGA	-0.189
CTAACGTA	-0.065
TCAGCACA	-0.0748
GGAGTCCA	0.0849
CTTTTTAA	-0.268
CAACCCAC	0.171
AAGAATGC	-0.134
GATCACCC	0.132
AAATGCGT	-0.118
ACTTGACT	-0.0543
GTGCCCAC	-0.0937
TAGTACAA	0.0706
GACTTACC	-0.105
ACGTTTAC	-0.0176
CACACCCG	0.423
CAGTTAAG	0.23
AAGATTTC	-0.243
AGAATGCG	-0.285
CGTCATCA	-0.128
AGGTCTAC	-0.0453
AGCAATCC	-0.183
GCAATTGC	-0.226
ACGTCCAG	-0.0569
CCACTTCG	0.0374

Sequence	binding signal [E-score]
AACGGGTA	0.141
CTGTGGCA	-0.04
CGTACAAA	-0.118
CTACGCTC	-0.0693
ATTAGACG	0.0467
ACCGTCGC	0.0136
AGCCGAGA	-0.155
GTCTAGAC	-0.0532
GATGCCAC	-0.196
AACATAGT	-0.167
AGGGCAAG	0.00769
AATTAGGG	0.135
GGGCTATA	0.0973
CAAGGAGA	-0.181
ACAGGGAT	0.111
GGACGCGA	0.0375
ACTGGTTA	0.0966
AATCCCGG	0.0428
CATTAAAG	-0.0811
GCCGGCGA	-0.0597
GGGTGGAC	0.0505
AATATCAG	-0.0103
ACGATCTC	-0.247
ACACACTC	0.314
GATACGGC	-0.0772

Sequence	binding signal [E-score]
CTATGGCC	-0.221
CACACTCC	0.291
TACCGGGA	-0.0253
ACACTACT	0.393
CAATCCTG	-0.12
AGCAGTAA	-0.0926
CAACATCG	-0.193
AAGGTTCT	-0.0253
CACCAAAC	0.283
AAACCTGG	0.169
GAAGGTAA	-0.0172
TCAGTCCA	-0.0976
TGTCCAAA	0.0949
ATCTAACC	-0.218
CCTCCTTC	-0.061
GGTGGAGA	-0.0619
ACCAGGGT	0.19
GGGTGAGA	0.0782
CCGCCAGA	0.061
GGGTACAC	0.443
CCTATCGA	-0.0816
AGCCTCAG	-0.18
GCAACCCA	-0.0189
ATGGATCG	-0.119
CACATCGG	0.0195

Sequence	binding signal [E-score]
CACGATGC	0.182
GCGATGAC	-0.0426
GCGCGACA	0.155
AGGATTAA	-0.131
ATGTGGTC	-0.185
AGGACATG	-0.15
GAGCGGTA	-0.157
TAAGTCAA	-0.229
CTCCATTC	0.0123
ACACTTAG	0.355
CCCATCGG	-0.0481
CACACGAC	0.237
ACTTAGAA	-0.0549
CACCTATC	0.289
AGTACGCA	-0.0619
TGGGATAA	0.00666
CTTGTCAA	0.0395
ACTAGCGG	0.0848
ACTCAGTC	-0.103
AAATGTAC	-0.00885
CTCGTAGA	-0.152
GACTTATA	-0.137
AAGTAGGC	-0.116
ACATTCGT	-0.125
ACGGTACA	0.118

Sequence	binding signal [E-score]
TCACGGAA	-0.078
CCCGGGCG	0.0228
AGACTGTG	-0.261
AGGGACGC	-0.0192
ACGTGGTA	0.00206
TAAATTTA	-0.0495
CCTCCAGA	0.0469
GACATGTA	-0.0765
GAGGACTA	-0.0325
CTAGGGAG	0.00188
TATAAATA	-0.177
CCTGATCG	-0.136
CTCTCGCA	-0.0458
GGGGGTAC	0.331
ACAGCCAC	-0.173
AATTCGTA	-0.0821
CGATTGGA	-0.0175
TCGAACGA	-0.082
AGATTGTC	-0.128
AAATTCGC	-0.158
TCAGGAAA	-0.217
AGGAGCCC	-0.184
CAAGTCTC	-0.365
ATGGCTCG	-0.0827
AAACGTCG	-0.16

Sequence	binding signal [E-score]
CCCGCGGG	0.0967
AGCGGGCG	-0.16
AGGCTAAG	-0.0968
ATTCCTAA	-0.0757
ACGTGTAA	0.413
AAAACGCG	-0.168
ACTTCGCC	-0.163
ACAGAACA	0.0648
AACGTGAG	-0.0389
GGACCGCC	-0.364
CCAACCAA	-0.0322
AGCGGCGA	-0.0932
CCCCATGA	0.151
TGCGTACA	0.18
GGTCTTCA	-0.215
CTACTGGC	-0.249
ATCATACG	-0.0376
ATTCCTTC	-0.18
CGATTGAA	-0.194
CAACAAAG	-0.136
GAAACACC	0.455
CTGATGAC	-0.126
